According to the supplement of paper PMC7580552:
Structures can show the parent of a compound that is named as a salt. The list shows a part of the results. Many values rest on one well or one pass, so single values are uncertain.

Tested on: Escherichia coli W3110
Assay: planktonic growth (OD600) relative to untreated control; higher = more growth
Conditions: 10 µM; 20-24 h; 30 °C; TB
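Note: stationary (unshaken) cultures in 96-well plates, started at OD600 0.05 from mid-exponential cells, with compounds supplied from DMSO stocks.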

Structure (SMILES)	planktonic growth [%]
c1ccc2c(c1)OCC(C1=NCCN1)O2 (centres undefined) [Idazoxan hydrochloride]	103
CCCCCC[C@H]1C(=O)O[C@H](C)[C@H](NC(=O)c2cccc(NC=O)c2O)C(=O)O[C@@H](C)[C@@H]1OC(=O)CC(C)C [Antimycin A]	97
CC[N+]1(C)CCCC(OC(=O)C(O)(c2ccccc2)c2ccccc2)C1 (centres undefined) [Pipenzolate bromide]	95
COc1cc2c(c(OC)c1OC)-c1ccc(OC)c(=O)cc1[C@@H](NC(C)=O)CC2 [Colchicine]	102
O=C(NCNC(=O)NC1C(=O)NC(=O)N1CO)NC1C(=O)NC(=O)N1CO (centres undefined) [Imidurea]	86
CC(=O)O[C@H]1CC[C@@]2(C)C(=CC[C@@H]3[C@@H]2CC[C@]2(C)C(=O)CC[C@@H]32)C1 [Dehydroisoandosterone 3-acetate]	94
CN1C[C@H](CNC(=O)OCc2ccccc2)C[C@@H]2c3cccc4c3c(cn4C)C[C@H]21 [Metergoline]	108
Oc1ccc2c3c1O[C@H]1[C@@H](O)CC[C@@]4(O)[C@@H](C2)N(CC2CCC2)CC[C@]314 [Nalbuphine hydrochloride]	97
CC(C)c1cccc(C(C)C)c1O [Propofol]	97
C[C@]12CC[C@H](O)C[C@H]1CC[C@@H]1[C@@H]2CC[C@]2(C)[C@@H](C3=CC(=O)OC3)CC[C@]12O [Digitoxigenin]	99
C[C@]12CCC(=O)C=C1C=C[C@@H]1[C@@H]2CC[C@@]2(C)[C@H]1CC[C@@]2(O)CCC(=O)O [Canrenoic acid potassium salt]	97
CCCC(C)C1(CC)C(=O)NC(=O)NC1=O (centres undefined) [Pentobarbital]	102
C=CCN1CC[C@]23c4c5ccc(O)c4O[C@H]2C(=O)CC[C@@]3(O)[C@H]1C5 [Naloxone hydrochloride]	96
CC(=O)O[C@H]1C[C@@H]2CC[C@@H]3[C@H](CC[C@@]4(C)[C@H]3C[C@H]([N+]3(C)CCCCC3)[C@@H]4OC(C)=O)[C@@]2(C)C[C@@H]1[N+]1(C)CCCCC1 [Pancuronium bromide]	103
c1ccc2c(c1)Nc1ccccc1S2 [Phenothiazine]	101
CC(NC(C)(C)C)C(=O)c1cccc(Cl)c1 (centres undefined) [Bupropion hydrochloride]	106
CN1CCC2(C)c3cc(O)ccc3N(C)C12 (single isomer, unassigned; (-)) [(-)-Eseroline fumarate salt]	110
CN1CCN(C(=O)O[C@H]2c3nccnc3C(=O)N2c2ccc(Cl)cn2)CC1 [Eszopiclone]	101
O=C1CC[C@@]2(O)[C@H]3Cc4ccc(O)c5c4[C@@]2(CCN3CC2CC2)[C@H]1O5 [Naltrexone hydrochloride dihydrate]	101
CN[C@@H]1[C@@H](O)[C@@H](O[C@@H]2[C@@H](O)[C@H](O[C@H]3O[C@H](CN)CC[C@H]3N)[C@@H](N)C[C@H]2N)OC[C@]1(C)O.CN[C@@H]1[C@@H](O)[C@@H](O[C@@H]2[C@@H](O)[C@H](O[C@H]3O[C@H]([C@@H](C)N)CC[C@H]3N)[C@@H](N)C[C@H]2N)OC[C@]1(C)O.CN[C@@H]1[C@@H](O)[C@@H](O[C@@H]2[C@@H](O)[C@H](O[C@H]3O[C@H]([C@@H](C)NC)CC[C@H]3N)[C@@H](N)C[C@H]2N)OC[C@]1(C)O [Gentamicine sulfate]	45
N[C@@H]1C[C@H]1c1ccccc1 [Tranylcypromine hydrochloride]	91
NCC(CC(=O)O)c1ccc(Cl)cc1 (racemic) [Baclofen (R,S)]	112
CN1[C@@H]2C[C@@H](OC(=O)[C@H](CO)c3ccccc3)C[C@H]1[C@@H]1O[C@@H]12 [Scopolamine hydrochloride]	94
C#C[C@]1(O)CC[C@H]2[C@@H]3CCC4=CC(=O)CCC4=C3C=C[C@@]21CC [Gestrinone]	111
